According to US10889573B2, “Anthelmintic quinoline-3-carboxamide derivatives” (Bayer Animal Health GMBH, priority 2016, dated 2021):
Read-outs that look alike come from different tables or passages of the source. Some of these results come from one statement about several compounds together. At least one structure is not confirmed: it was looked up by name or label, or the drawing left a doubt.

Experiments:
[1] = tested on: Nippostrongylus brasiliensis; test: In vitro assay 2: Nippostrongylus brasiliensis (NIPOBR), acetylcholine esterase readout
Method in brief: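 Readout was acetylcholine esterase activity released into the medium, compared with negative control, after exposing adult worms to compounds at final 10 ppm (10 μg/ml) or 1 ppm (1 μg/ml). Worms were first washed in antibiotic/amphotericin B-containing saline; compounds were dissolved in DMSO.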

Cooperia curticei = conditions: after 5 days
Haemonchus contortus = conditions: after 5 days

SMILES	activity (reduction of AChE compared to negative control) ([1]; 1 μg/ml)	activity (reduction of AChE compared to negative control) ([1]; 10 μg/ml)	activity (larval mortality) (Cooperia curticei; 4 ppm)	activity (larval mortality) (Cooperia curticei; 20 ppm)	activity (larval mortality) (Haemonchus contortus; 4 ppm)	activity (larval mortality) (Haemonchus contortus; 20 ppm)
CN(C)c1c(C(=O)N[C@H]2CCOc3ccccc32)cnc2c(-c3cc(Cl)cc(Cl)c3)cccc12 [Example 8]	higher than 80%	higher than 80%	100%	100%	100%	100%
CN(C)c1c(C(=O)N[C@H]2CCc3ccccc32)cnc2c(-c3cc(Cl)cc(Cl)c3)cccc12 [Example 9]	higher than 80%	higher than 80%	90%	100%	100%	
CN(C)c1c(C(=O)N[C@H]2CCOc3ccccc32)cnc2c(-c3cc(Cl)c(F)c(Cl)c3)cccc12 [Example 13]	higher than 80%	higher than 80%	100%	100%	100%	100%
Cc1cc(C)cc(-c2cccc3c(N(C)C)c(C(=O)N[C@H]4CCOc5ccccc54)cnc23)c1 [Example 15]	higher than 80%	higher than 80%		80%	90%	100%
CN(C)c1c(C(=O)N[C@H]2CCCc3ccccc32)cnc2c(-c3cc(Cl)cc(Cl)c3)cccc12 [Example 16]	higher than 80%	higher than 80%	80%	90%		80%
CN(C)c1c(C(=O)N[C@H]2CCOc3ccccc32)cnc2c(-c3cc(Cl)cc(Cl)c3)c(F)ccc12 [Example 22]	higher than 80%	higher than 80%	100%	100%	100%	100%
CNc1c(C(=O)N[C@H]2CCOc3ccccc32)cnc2c(-c3cc(Cl)c(F)c(Cl)c3)cccc12 [Example 23]	higher than 80%	higher than 80%	100%	100%	100%	100%
CN(C)c1c(C(=O)N[C@H]2CCOc3ccccc32)cnc2c(-c3cc(F)ccc3Cl)cccc12 [Example 29]	higher than 80%	higher than 80%	90%	100%	100%	100%
COc1cc(-c2cccc3c(N(C)C)c(C(=O)N[C@H]4CCOc5ccccc54)cnc23)ccc1F [Example 31]	higher than 80%	higher than 80%	90%	90%	90%	90%
COc1c(F)ccc(-c2cccc3c(N(C)C)c(C(=O)N[C@H]4CCOc5ccccc54)cnc23)c1F [Example 32]	higher than 80%	higher than 80%	100%	100%	100%	100%
Cc1c(F)cccc1-c1cccc2c(N(C)C)c(C(=O)N[C@H]3CCOc4ccccc43)cnc12 [Example 33]	higher than 80%	higher than 80%	100%	100%	90%	100%
CN(C)c1c(C(=O)N[C@H]2CCOc3ccccc32)cnc2c(-c3cccc(Cl)c3Cl)cccc12 [Example 34]	higher than 80%	higher than 80%	100%	100%	100%	100%
Cc1c(Cl)cccc1-c1cccc2c(N(C)C)c(C(=O)N[C@H]3CCOc4ccccc43)cnc12 [Example 36]	higher than 80%	higher than 80%	100%	100%	100%	100%
CN(C)c1c(C(=O)N[C@H]2CCOc3ccccc32)cnc2c(-c3cc(Cl)cc(C(F)(F)F)c3)cccc12 [Example 39]	higher than 80%	higher than 80%	80%			80%
CN(C)c1c(C(=O)N[C@H]2CCOc3ccccc32)cnc2c(-c3cc(Cl)cc(Cl)c3)cc(F)cc12 [Example 40]	higher than 80%	higher than 80%	90%	90%	100%	80%
O=C(N[C@H]1CCOc2ccccc21)c1cnc2c(-c3cc(Cl)cc(Cl)c3)cc(F)cc2c1N1CCOCC1 [Example 42]	higher than 80%	higher than 80%	80%	80%	80%	80%
Cc1cc(Cl)cc(-c2cccc3c(N(C)C)c(C(=O)N[C@H]4CCOc5ccccc54)cnc23)c1 [Example 44]	higher than 80%	higher than 80%	80%	80%	80%	90%
CN(C)c1c(C(=O)N[C@H]2CCOc3ccccc32)cnc2c(-c3ccc(F)c(Cl)c3)cccc12 [Example 45]	higher than 80%	higher than 80%	100%	100%	90%	90%
CN(C)c1c(C(=O)N[C@H]2CCOc3ccccc32)cnc2c(-c3cc(F)cc(Cl)c3)cccc12 [Example 46]	higher than 80%	higher than 80%	100%	100%	100%	100%
